# Data reported in the supplement of paper PMC4604168 (melanoma cell lines).
# The other results are listed elsewhere or left out. Single values are uncertain, as repeats are few or missing.
# Assays:
# Assay in all cases: cell count relative to DMSO control; melanoma cells; higher = more viable cells
# Conditions in all cases: library dose: low library concentration; 72 h
# [1] = test system: WM115
# [2] = test system: WM1716
# [3] = test system: WM1745
# [4] = test system: WM3526
# [5] = test system: WM3619
# [6] = test system: WM451Lu
# 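Also: cell number obtained by counting DAPI-stained nuclei in high-throughput microscope images with image analysis software, screen run in 1,536-well plates.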
Compound,cell count [1] [%],cell count [2] [%],cell count [3] [%],cell count [4] [%],cell count [5] [%],cell count [6] [%]
"Nc1ncn([C@H]2C[C@H](O)[C@@H](CO)O2)c(=O)n1 [decitabine] + O=C(CCCCCCC(=O)Nc1ccccc1)NO [vorinostat] (first compound 0.1 µM, partner dose 0.08 µM)",80,75.3,92,95.4,84.6,102
"CC(=O)c1c(C)c2cnc(Nc3ccc(N4CCNCC4)cn3)nc2n(C2CCCC2)c1=O [palbociclib] + OCCn1cc(-c2cnc3nnn(Cc4ccc5ncccc5c4)c3n2)cn1 [PF04217903] (first compound 0.04 µM, partner dose 1 µM)",75.8,67.9,73,54.8,80.2,81
"CO[C@H]1C[C@@H]2CC[C@@H](C)[C@@](O)(O2)C(=O)C(=O)N2CCCC[C@H]2C(=O)O[C@H]([C@H](C)C[C@@H]2CC[C@@H](OCCO)[C@H](OC)C2)CC(=O)[C@H](C)/C=C(\C)[C@@H](O)[C@@H](OC)C(=O)[C@H](C)C[C@H](C)/C=C/C=C/C=C/1C [everolimus] + COc1cc2c(Oc3ccc4[nH]c(C)cc4c3F)ncnc2cc1OCCCN1CCCC1 [cediranib] (first compound 0.02 µM, partner dose 0.4 µM)",87,76,84.4,65.4,69.8,87.6
"CC(=O)O[C@@]12CO[C@@H]1C[C@H](O)[C@@]1(C)C(=O)[C@H](O)C3=C(C)[C@@H](OC(=O)[C@H](O)[C@@H](NC(=O)OC(C)(C)C)c4ccccc4)C[C@@](O)([C@@H](OC(=O)c4ccccc4)[C@H]21)C3(C)C [Docetaxel] + Oc1cc(-c2nc(-c3ccccc3)[nH]c2-c2ccncc2)ccc1Cl [L779450] (first compound 0.0001 µM, partner dose 0.2 µM)",52.3,29,41,36.1,65.4,48.9
"CC(=O)c1c(C)c2cnc(Nc3ccc(N4CCNCC4)cn3)nc2n(C2CCCC2)c1=O [palbociclib] + Cn1cncc1[C@@](N)(c1ccc(Cl)cc1)c1ccc2c(c1)c(-c1cccc(Cl)c1)cc(=O)n2C [tipifarnib] (first compound 0.04 µM, partner dose 0.01 µM)",66.1,43.6,81,62.9,56.2,41.3
"CO[C@H]1C[C@@H]2CC[C@@H](C)[C@@](O)(O2)C(=O)C(=O)N2CCCC[C@H]2C(=O)O[C@H]([C@H](C)C[C@@H]2CC[C@@H](OCCO)[C@H](OC)C2)CC(=O)[C@H](C)/C=C(\C)[C@@H](O)[C@@H](OC)C(=O)[C@H](C)C[C@H](C)/C=C/C=C/C=C/1C [everolimus] + C[C@@H]1CCN(C(=O)CC#N)C[C@@H]1N(C)c1ncnc2[nH]ccc12 [CP690550] (first compound 0.02 µM, partner dose 1 µM)",72.9,78,93.3,78,81.5,83.3
"Nc1nc(F)nc2c1ncn2[C@@H]1O[C@H](CO)[C@@H](O)[C@@H]1O [fludarabine] + NCC(=O)Nc1ccc(-n2nc(C(F)(F)F)cc2-c2ccc3c(ccc4ccccc43)c2)cc1 [OSU03012] (first compound 0.2 µM, partner dose 1 µM)",82.6,86.1,101,32.1,104,52.7
"CC(=O)O[C@@]12CO[C@@H]1C[C@H](O)[C@@]1(C)C(=O)[C@H](O)C3=C(C)[C@@H](OC(=O)[C@H](O)[C@@H](NC(=O)OC(C)(C)C)c4ccccc4)C[C@@](O)([C@@H](OC(=O)c4ccccc4)[C@H]21)C3(C)C [Docetaxel] + COc1ccc(-c2ccc3c(N4CCOCC4)nc(N4C[C@@H](C)O[C@@H](C)C4)nc3n2)cc1CO [KU0063794] (first compound 0.0001 µM, partner dose 0.02 µM)",59.1,38.9,47.5,37.9,68.9,45.5
"CC(=O)c1c(C)c2cnc(Nc3ccc(N4CCNCC4)cn3)nc2n(C2CCCC2)c1=O [palbociclib] + CC1(C)NC(=O)N(c2ccc([N+](=O)[O-])c(C(F)(F)F)c2)C1=O [nilutamide] (first compound 0.04 µM, partner dose 1 µM)",74.9,67.9,53.8,45.6,50.1,72.6
"Nc1ncn([C@H]2C[C@H](O)[C@@H](CO)O2)c(=O)n1 [decitabine] + NCC(=O)Nc1ccc(-n2nc(C(F)(F)F)cc2-c2ccc3c(ccc4ccccc43)c2)cc1 [OSU03012] (first compound 0.1 µM, partner dose 1 µM)",86,69.6,95.8,54.6,113,65.3
"Nc1ncn([C@H]2C[C@H](O)[C@@H](CO)O2)c(=O)n1 [decitabine] + O=C(Nc1cccc(Cl)c1)Nc1ncc(CCNc2ncnc3ccsc23)s1 [SNS314] (first compound 0.1 µM, partner dose 0.0008 µM)",54.9,78.8,79.9,85.3,89.5,97.5
"CO[C@H]1C[C@@H]2CC[C@@H](C)[C@@](O)(O2)C(=O)C(=O)N2CCCC[C@H]2C(=O)O[C@H]([C@H](C)C[C@@H]2CC[C@@H](OCCO)[C@H](OC)C2)CC(=O)[C@H](C)/C=C(\C)[C@@H](O)[C@@H](OC)C(=O)[C@H](C)C[C@H](C)/C=C/C=C/C=C/1C [everolimus] + O=C1NC(=O)/C(=C/c2ccc(-c3ccc(F)cc3O)o2)S1 [AS252424] (first compound 0.02 µM, partner dose 1 µM)",97.7,74.9,86,62.7,67.9,69.7
"Nc1ncn([C@H]2C[C@H](O)[C@@H](CO)O2)c(=O)n1 [decitabine] + Nc1cccc2c1CN(C1CCC(=O)NC1=O)C2=O [lenalidomide] (first compound 0.1 µM, partner dose 1 µM)",84,83.6,78.5,93.8,87.8,102
"CC(=O)c1c(C)c2cnc(Nc3ccc(N4CCNCC4)cn3)nc2n(C2CCCC2)c1=O [palbociclib] + COc1ccc(-c2ccc3c(N4CCOCC4)nc(N4C[C@@H](C)O[C@@H](C)C4)nc3n2)cc1CO [KU0063794] (first compound 0.04 µM, partner dose 0.02 µM)",83.4,62.5,79.1,64.3,74.4,78.3
"Nc1ncn([C@H]2C[C@H](O)[C@@H](CO)O2)c(=O)n1 [decitabine] + CCc1ccc(CCOc2ccc(CC3SC(=O)NC3=O)cc2)nc1 [pioglitazone] (first compound 0.1 µM, partner dose 2 µM)",70.2,83.5,69.1,110,98.5,88
"Nc1ncn([C@H]2C[C@H](O)[C@@H](CO)O2)c(=O)n1 [decitabine] + Cc1cc(N2CCOCC2)cc2[nH]c(-c3c(NC[C@@H](O)c4cccc(Cl)c4)cc[nH]c3=O)nc12 [BMS536924] (first compound 0.1 µM, partner dose 0.2 µM)",91.8,83.3,78.1,103,93.6,93.2
"CC(=O)c1c(C)c2cnc(Nc3ccc(N4CCNCC4)cn3)nc2n(C2CCCC2)c1=O [palbociclib] + Oc1nc(-c2ccc(C(F)(F)F)cc2)nc2c1CSCC2 [XAV939] (first compound 0.04 µM, partner dose 2 µM)",62,41,63.2,57,61.6,53.2
"CO[C@H]1C[C@@H]2CC[C@@H](C)[C@@](O)(O2)C(=O)C(=O)N2CCCC[C@H]2C(=O)O[C@H]([C@H](C)C[C@@H]2CC[C@@H](OCCO)[C@H](OC)C2)CC(=O)[C@H](C)/C=C(\C)[C@@H](O)[C@@H](OC)C(=O)[C@H](C)C[C@H](C)/C=C/C=C/C=C/1C [everolimus] + Clc1ccc(Nc2nnc(Cc3ccncc3)c3ccccc23)cc1 [vatalanib] (first compound 0.02 µM, partner dose 2 µM)",72.3,62.7,73.7,59.5,67,90.5
"Nc1nc(F)nc2c1ncn2[C@@H]1O[C@H](CO)[C@@H](O)[C@@H]1O [fludarabine] + CCc1ccc(CCOc2ccc(CC3SC(=O)NC3=O)cc2)nc1 [pioglitazone] (first compound 0.2 µM, partner dose 2 µM)",96.1,88.6,97.1,31.9,104,51
